Reference: the RNAGym collection of RNA variant scans (doi:10.7554/elife.90254)
Read counts are not given, so values of variants with three or more changes are uncertain.

B1: LINE1-full (parent)
chain: UACGUAGGUGGUUUUCCCCUGAUAGUGCUAAGGGGGCCUGGAAGUUUGGACUGGGCAGAGCUCAACACAGCGUGGCAAAGUGGCUGUGGCUAGACUGCCUCUCUGGAUUCCUCGUCACUCAGCAGGGCAUCUCUGAGAGAAAUGCC

Variants of: B1
Assay: self-cleavage, relative activity (ratio to wild type); higher = more cleavage; in vitro, sequencing; the parent is a self-cleaving ribozyme

Variant | self-cleavage
A121U U134A A140G | 0.3
A129U U134C A141G | 1.41
U119A A138U A142G | 1.53
A129G U134A A138U | 1.55
A124G U130C A138G | 2.43
A129U A140G U143G | 0.97
A129U A140G U143C | 1.53
A124G A129C U134C | 0.5
A124U A136U U143A | 1.09
A124U A129U A140G | 1.47
U130C C131A U143G | 1.2
C123U U132C A142C | 1.26
U132C A141G U143G | 0.78
U119C A129U U134A | 2.27
A117U G127C A138U | 1.46
U119C U132C G144A | 1.49
U119A U134C U143C | 1.2
U119A A124G U132C | 1.46
U119C C123U C131A | 0.85

Variant | self-cleavage
A124G A136G A140U | 1.03
A117U U132C U143C | 1.87
A124G C133U U134C | 1.72
A117U U130C A138U | 1.62
A129G U130C A140G | 1.74
U119C A121G C133U | 3
U132C A138U A141G U143C | 0
A117U A129G A141G | 1.02
A129U U134C A136U | 1.39
A117U A121G U134A | 1.93
A124G A129G A138G | 0.93
U119A G127A U130C A138G | 1.85
C120A A136U A142G | 1.48
C128U A129G A141G | 0.67
A121G A129U A142G C145G | 1.5
U132C U134C A142G | 1.58
A124G A142G U143C | 1.11
A129U U130A A136U G139U | 0.16
A124U A136G A140G | 1.17
